Some of the results follow. The energies were worked out here from pooled read counts, against the library average; single values are noisy.
Each sequence was assayed against T1, Pho4 (S. cerevisiae) (UniProt P07270) (assay: relative binding free energy (BET-seq); higher = weaker binding). Conditions: reference: library average.
T1 sequence: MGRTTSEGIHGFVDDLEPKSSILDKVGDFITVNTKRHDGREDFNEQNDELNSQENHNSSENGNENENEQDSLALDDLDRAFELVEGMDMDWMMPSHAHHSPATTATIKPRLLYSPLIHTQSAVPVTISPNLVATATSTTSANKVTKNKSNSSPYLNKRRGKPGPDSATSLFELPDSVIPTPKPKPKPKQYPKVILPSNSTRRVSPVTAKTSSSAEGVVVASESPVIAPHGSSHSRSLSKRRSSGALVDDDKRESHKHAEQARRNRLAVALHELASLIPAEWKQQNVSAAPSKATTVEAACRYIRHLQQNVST

Sequence | relative binding free energy [kcal/mol]
CATATCACGTGTTGTT | 0.24
GTCGTCACGTGTGCGG | 0.16
GATTGCACGTGGTGAC | 0.15
TTATTCACGTGGTGTC | 0.2
ATTTTCACGTGTAAGA | 0.24
TAAGGCACGTGTACTG | -0.02
TTGATCACGTGGCACG | 0.21
TTGTTCACGTGGCCTT | 0.15
TTTCACACGTGGTGCT | 0.06
GTTTCCACGTGTGTAG | 0.03
GTATTCACGTGTTTTC | 0.35
TGTGTCACGTGGGCCG | -0.09
ATTTCCACGTGATTTT | 0.12
TAGTGCACGTGATGTT | 0.07
TTTGTCACGTGGCTCG | 0.17
TTTTCCACGTGGTGTA | -0.07
TGTATCACGTGATAAG | 0.2
GAATGCACGTGATAGT | 0.1
CTTATCACGTGGGGGA | -0.12
GATAGCACGTGAGGGG | 0.24
CGGTTCACGTGTATTT | 0.29
GGGAACACGTGATTGG | 0.18
TTTAGCACGTGTGTAC | -0.11

Sequence | relative binding free energy [kcal/mol]
TTGTCCACGTGTCTGG | 0.04
TTAATCACGTGATTTG | 0.27
AAGGGCACGTGAAAAG | 0.18
TATAACACGTGTAGGA | 0.08
TCAGTCACGTGTGGCG | 0.13
GTTGCCACGTGGGACG | -0.13
AATCTCACGTGGTTGT | 0.21
GTTCACACGTGAAGGT | 0.5
GGTATCACGTGGGTTG | -0.02
CGGGGCACGTGTTAAT | -0.25
AGGGGCACGTGAGATT | 0.22
TAGTACACGTGGTATT | -0.08
AGATTCACGTGGGAAT | 0.11
AGGGACACGTGGATAG | -0.02
GGCTGCACGTGTTCTG | 0.06
TTGAGCACGTGGAGTG | -0.16
GCAGTCACGTGGTGAT | -0.02
GTCTTCACGTGGAGTG | 0.33
CAGCGCACGTGTTGGG | -0.18
GGCGACACGTGAATGG | 0.32
GTCCTCACGTGTTTTT | 0.32
GTTGCCACGTGGTCGT | -0.2
ATGGGCACGTGGAGTT | 0.02

Sequence | relative binding free energy [kcal/mol]
GTTGACACGTGTAGGG | 0.08
TTTATCACGTGCGGAA | 0.17
CCATTCACGTGTTGTG | 0.3
TGGTGCACGTGTAACG | -0.03
TTGTACACGTGTTTGA | 0.08
AGTGACACGTGTATGA | 0.09
ATTGGCACGTGTCGGG | -0.13
TTGATCACGTGATTGT | 0.31
TGGGGCACGTGGATGT | -0.02
CTTTACACGTGTTAGT | 0.01
CAATTCACGTGAGGGG | 0.38
GACTTCACGTGGGGTG | 0.13
AGTGGCACGTGGAACG | -0.09
GGGCGCACGTGGAATT | 0.02
GTGGGCACGTGGGGTG | -0.21
TTTGACACGTGCTGGG | -0.02
TGTGTCACGTGGGCCT | -0.15
TTTGCCACGTGTGTTG | -0.13
CGTATCACGTGTTGTT | 0.13
TGATACACGTGTGCAT | 0.04
TGCTGCACGTGTTCTT | 0.1
TAAGACACGTGCTGGG | 0.03
TTTTGCACGTGGGGCC | -0.14

Sequence | relative binding free energy [kcal/mol]
TAGTACACGTGGGGCT | -0.01
GGTTCCACGTGGTTTC | 0.21
AATGACACGTGGTATG | -0.04
CGTCGCACGTGGTTGT | -0.07
TGTCACACGTGCGGCG | 0.21
ATTTACACGTGAGGAG | 0.34
TTTGCCACGTGGATTG | 0
TTCTACACGTGTCGTT | 0.22
TATGACACGTGGTGCT | -0.07
TGAGTCACGTGTAGGA | 0.1
TATGGCACGTGGCAGG | -0.05
TTAGACACGTGTTAGA | 0
TTTTGCACGTGTGTTA | -0.01
TGAGTCACGTGGATTG | 0.17
GGGTGCACGTGGGTCG | -0.14
AATGTCACGTGGTGTC | 0.03
TAGGCCACGTGATGGG | -0.04
ATGTTCACGTGTAATT | 0.28
TGCAACACGTGTTGTA | -0.06
CGGTTCACGTGGTATT | 0.25
AAGTTCACGTGTTGAT | 0.24
TGGTTCACGTGGGAAT | 0.17
TTGGGCACGTGTTCTT | -0.03

Sequence | relative binding free energy [kcal/mol]
TGGTTCACGTGTCAGG | 0.44
TGGATCACGTGGGATG | 0.14
ATGTCCACGTGGGAGG | -0.21
TCAAGCACGTGGTGAG | -0.14
GAAATCACGTGGATTT | 0.26
TTAGTCACGTGATCGT | 0.05
TTCTTCACGTGGGTGG | 0.2
GAGGGCACGTGTTGAT | -0.04
ATATACACGTGGGTCA | -0.13
CATGGCACGTGGATTG | 0
GGGTGCACGTGGCTTA | 0.04
GCTGTCACGTGGAGTT | 0.18
TCTTTCACGTGGTCTA | 0.3
TGGTGCACGTGTGTTC | 0.03
ATGTACACGTGTATGA | 0.12
AAATTCACGTGAAGGG | 0.33
TTTGGCACGTGACTCT | 0.1
AAGTGCACGTGAGAAG | 0.35
GGGTTCACGTGTATGT | 0.31
AAGATCACGTGGGATT | 0.02
GTTACCACGTGTGGGT | 0.03
GTTTGCACGTGCGGAA | 0.11
TTTGACACGTGTATAT | -0.08

— the BET-seq Pho4 binding data (Le et al. 2018)
